# In all, about 330,000 compounds went through this assay and about 80 (0.02%) were called active. Inconclusive means that the source gave no clear call. Such entries were picked first, then a sample of the others. Calls follow the shape of the dose curve; as a rule, active = well fitted activation curve with a large enough effect; inconclusive = small, poorly fitted or top-dose-only effect; inactive = flat fitted curve, though single readings scatter. Potencies of inconclusive entries are left out as doubtful fits.
# Molecular target: Beta-2 adrenergic receptor (Homo sapiens) (UniProt P07550)
# Test: qHTS assay of beta-arrestin-biased ligands of beta2-adrenergic receptor; also: nearly all actives have a fitted effect of over 65% in size;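 as to activation: 0% = DMSO controls and full agonism = EC100 isoproterenol or metaproterenol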
# Conditions: beta-arrestin recruitment to beta2AR, cell-based reporter; series mostly up to 46.1 µM; activation: at the top concentration
# Summary of the method: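 Values derive from curve-fitted %Activity of a luminescent beta-arrestin recruitment reporter; compounds tested up to 46 microM on Tango cells for 18 hr at 37 degrees C, 5% CO2.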
# Potency is read from the fitted curve at half-maximal effect; tags tell the direction and shape of the fitted curve.
# Chain of UniProt P07550 (P07550 whole entry, looked up): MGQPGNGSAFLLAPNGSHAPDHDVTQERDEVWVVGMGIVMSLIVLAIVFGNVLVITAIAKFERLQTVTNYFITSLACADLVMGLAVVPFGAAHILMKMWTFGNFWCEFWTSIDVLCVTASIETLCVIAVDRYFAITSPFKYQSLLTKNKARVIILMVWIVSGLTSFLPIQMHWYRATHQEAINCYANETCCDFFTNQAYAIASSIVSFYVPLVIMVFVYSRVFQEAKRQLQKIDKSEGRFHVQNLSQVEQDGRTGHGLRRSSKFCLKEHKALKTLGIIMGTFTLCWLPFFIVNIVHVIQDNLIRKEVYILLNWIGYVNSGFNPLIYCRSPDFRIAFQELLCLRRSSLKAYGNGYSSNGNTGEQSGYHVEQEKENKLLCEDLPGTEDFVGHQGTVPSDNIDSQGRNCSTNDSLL
SMILES,Potency,activation
CCOc1ccccc1OCC(=O)O,"inconclusive [rising, single point]",–
Cc1cc(F)ccc1NC(=S)NC1CCCC1,"inconclusive [rising, single point]",–
Cc1nn2c(Nc3ccccc3)c3c(nc2c1-c1ccccc1)CCC3,–,inactive: -0.418%
COc1ccc(S(=O)(=O)Nc2ccc(O)c3ccccc23)cc1,–,inactive: -2%
Oc1cc(-c2cccnc2)cc2cccnc12,"inconclusive [rising, single point]",–
O=C(COc1ccc2c(c1)OCO2)Nc1cccc(F)c1,–,inactive: 0.277%
COc1ccc(NC(=O)N2c3ccc(OC)cc3C(C)=CC2(C)C)cc1,"inconclusive [rising, single point]",–
Cc1csc(NC(=S)NC(=O)c2ccccc2)n1,"inconclusive [rising, single point]",–
c1ccc2c(Nc3nc(N4CCOCC4)c4ccccc4n3)cccc2c1,"inconclusive [rising, single point]",–
CCOc1ccccc1NC(=O)C1CCN(S(C)(=O)=O)CC1,–,inactive: 0.478%
C/C(=N\NC(=O)c1c[nH]c2ccccc12)c1ccc(C)s1,"inconclusive [rising, single point]",–
C[C@@]12C(=O)Nc3cc(Cl)ccc3C(=O)N1[C@H]1c3ccccc3OC[C@@H]1[C@@H]2c1ccccc1,"inconclusive [rising, partial curve, poor fit]",–
O=C(OCC#CCNc1nnc(-c2cccc3ccccc23)o1)c1cccs1,–,inactive: -0.305%
COc1ccc(C(=O)C2CCCN(Cc3cc(C)c(O)c(C)c3)C2)c(OC)c1 (stereo not drawn),–,inactive: -0.0479%
O=C1NC(=S)/C(=C\c2ccc(-c3ccccc3Cl)o2)S1,"inconclusive [rising, single point]",–
O=C1C=C(NC2CCCC2)CC(c2ccccc2)C1 (stereo not drawn),active: 3.55 µM,–
O=Cc1s/c(=N\S(=O)(=O)c2ccccc2)n(CCCCl)c1Cl,–,inactive: -0.0013%
Cc1cc(OCC(=O)OCC(=O)N(C)C2CCS(=O)(=O)C2)ccc1Cl (stereo not drawn),–,inactive: -0.334%
C/C(=N\NC(=O)c1cccs1)c1ccc(C(=O)O)s1,–,inactive: 0.222%
O=C(N/N=C/c1c[nH]c2ccc(Br)cc12)C1CC1,"inconclusive [rising, single point]",–
CN(C)CCC=C1c2ccccc2CCc2ccccc21,–,inactive: 1.9%
CCC12CN3CC(CC)(CN(C1)C3c1ccc([N+](=O)[O-])o1)C2=O (stereo not drawn),–,inactive: 0.153%
COc1ccc(-c2nnc(SCC(=O)Nc3cc(C)on3)o2)cc1,"inconclusive [rising, single point]",–
Cc1cc2c(Nc3cccc(O)c3)ncnc2s1,"inconclusive [rising, single point]",–
CCc1nc(N2CCN(C(C)=O)CC2)c2c3c(sc2n1)CC(C(C)(C)C)CC3 (stereo not drawn),–,inactive: 0.513%
CCSc1nc(-c2ccccc2)nc2c1CCCC2,–,inactive: -0.65%

SMILES,Potency,activation
O=C(Oc1ccc(Cl)c2cccnc12)c1ccco1,"inconclusive [activator, full curve]",–
CCC(C)(C)NC(=O)C(c1ccccc1F)N(C(=O)c1ccn[nH]1)c1ccccc1 (stereo not drawn),–,inactive: 11.9%
COc1ccc(N(CC(=O)N2CCCC2)S(C)(=O)=O)cc1,"inconclusive [rising, partial curve, poor fit]",–
CC(=O)c1cc(C#N)c(SCCC(C)C)nc1C,–,inactive: 0.141%
O=[N+]([O-])c1cc(Br)cc(C=Nc2ccc3c(c2)OCO3)c1O,"inconclusive [rising, single point]",–
Cc1nn(-c2ccccc2)c(C)c1/C=N/NC(=O)CSc1nnc(SCc2ccccc2Cl)s1,"inconclusive [rising, single point]",–
S=C(Nc1ccccc1)Nc1nc2ccccc2n1CCOc1ccc(Cl)cc1,"inconclusive [rising, single point]",–
CC[N+]1(C)CC2CCC(C)(C1)C2(C)C (stereo not drawn),"inconclusive [rising, full curve, poor fit]",–
CCOc1cccc(CNc2ccc(O)cc2)c1OCc1ccccc1Cl,"inconclusive [rising, partial curve, poor fit]",–
CCn1c(SCC(=O)c2ccc(Cl)cc2)nnc1C(C)C,"inconclusive [rising, single point]",–
Cn1cc(CCNC(=O)c2ccc3nc(Cc4ccccc4F)oc3c2)cn1,–,inactive: -0.049%
O=C(N/N=C1/CCc2ccccc21)C1CC1,–,inactive: -0.164%
O=C1C2C(C(=O)N1/N=C/c1ccc(N3CCCCC3)o1)C1C=CC2C12CC2 (stereo not drawn),–,inactive: -0.778%
COc1ccc(C(=O)C2CCCN(C/C=C/c3ccccc3OC)C2)c(OC)c1 (stereo not drawn),"inconclusive [rising, single point]",–
COc1ccc(C)cc1NC(=O)C1CC(=O)N(CCc2ccccc2)C1 (stereo not drawn),–,inactive: -0.146%
O=C(c1ccccc1NS(=O)(=O)c1ccc(Br)s1)N1CCCC1,–,inactive: -0.234%
COc1ccc(CN2CSC(=S)N(Cc3ccccc3)C2)cc1,"inconclusive [rising, single point]",–
CCN(CC)c1ccc(NC(=O)c2cnc3ccccn3c2=O)c(C)c1,–,inactive: -0.0504%
COc1ccc2[nH]c(=O)c(CN(Cc3cccnc3)C(=O)Nc3ccccc3)cc2c1,–,inactive: 0.419%
COCCn1cnnc1SCC(=O)Nc1cccc(S(=O)(=O)N(C)c2ccccc2)c1,–,inactive: -1.13%
CCc1cc2c(=O)nc3n(c2s1)Cc1ccccc1/C3=C(/O)c1ccc(F)cc1,"inconclusive [activator, partial curve]",–
CCCC(=O)Nc1sc2c(c1C(=O)OCC)CC(C)(C)OC2,–,inactive: -0.23%
Cc1ccc(/C=C2/C(=O)N(c3ccccc3)C(=S)N2C)o1,"inconclusive [rising, single point]",–
CSCC[C@H](NC(=O)c1ccc(OCC2CCCO2)cc1)c1nc2ccccc2[nH]1 (stereo partly drawn),"inconclusive [rising, single point]",–
CCOC(=O)Cc1csc(NC(=S)NC(=O)CC(C)C)n1,–,inactive: -0.989%
COc1ccc(Cn2c(O)c(C=Nc3ccccc3C(=O)O)c3ccccc3c2=O)cc1,–,inactive: -1.01%

SMILES,Potency,activation
CC(C)C(=O)N1CCC2(CC1)Oc1ccc(Cl)cc1C(=O)C21CC(c2ccccc2)=NO1 (stereo not drawn),"inconclusive [rising, single point]",–
CCn1c(SCC(=O)Nc2ccc(C(C)=O)cc2)nc2nc3c(cc2c1=O)CCCC3,–,inactive: -0.397%
CCNC(=S)/N=C(\N)Nc1nc(C)c2cc(C)ccc2n1,"inconclusive [rising, single point]",–
CCOC(=O)C1CCN(Cc2ccc(O)c3ncccc23)CC1,"inconclusive [rising, single point]",–
CCCCC(=O)Nc1nnc(SCC(=O)NC2CCCC2)s1,–,inactive: -0.67%
COc1ccc(C(NC(=O)/C=C/c2ccco2)c2ccc(OC)c(OC)c2)cc1OC,"inconclusive [rising, single point]",–
COc1cc(/C=C2/SC(=Nc3ccc(O)cc3)NC2=O)cc(OC)c1O,–,inactive: 0.325%
CCCCn1c(-c2sccc2C)n[nH]c1=S,"inconclusive [rising, single point]",–
O=C(COC(=O)c1ccc(CO)cc1)NCc1cccs1,"inconclusive [rising, single point]",–
CCCCN(CCCC)CCCNC(=O)Cn1cc2c(n1)-c1c(oc(C(=O)N3CCCC3)c1C)CC2,"inconclusive [rising, single point]",–
Cc1ccsc1C=Nc1ccc(O)cc1,"inconclusive [activator, partial curve]",–
NC(=S)NN=C(Cc1ccccc1)Cc1ccccc1,"inconclusive [rising, single point]",–
COc1ccc(C)cc1N(C(=O)c1cccc(F)c1)c1nc2ccccc2s1,"inconclusive [rising, single point]",–
O=[N+]([O-])c1ccc(/C=C2\CCC(C3=CCCC3)=C2N2CCOCC2)cc1,"inconclusive [rising, single point]",–
O=C(/C=C/Sc1ccccc1)c1ccc(Cl)cc1,"inconclusive [rising, single point]",–
COc1ccccc1N=NC1C(=O)N(C(N)=S)N=C1C (stereo not drawn),"inconclusive [rising, single point]",–
CCNC(=S)NNc1nncc2ccccc12,"inconclusive [rising, single point]",–
CCN(CC)c1ccc(N2C(=O)/C(=C/c3cccnc3)SC2=S)cc1,"inconclusive [rising, single point]",–
CN(C)CCCn1c(SCC(=O)Nc2nccs2)nnc1-c1ccncc1,"inconclusive [rising, single point]",–
CCCCCC(=O)Nc1cccc(C2=NOC3(C2)C[C@@H](C(N)=O)N(C(=O)CC(c2ccccc2)c2ccccc2)C3)c1 (stereo partly drawn),"inconclusive [rising, single point]",–
CCOC(=O)C1CCN(Cc2cnc(Oc3ccc(N)cc3)s2)CC1,"inconclusive [rising, single point]",–
COC(=O)c1ccc(-c2ccc(F)cc2)nc1C,"inconclusive [rising, single point]",–
CC(C)(C)n1ncc2c(=O)n(CC(=O)c3ccccc3)cnc21,–,inactive: -0.934%
CC(C)C(=O)COc1c2occc2cc2ccc(=O)oc12,"inconclusive [rising, single point]",–
CC1=NN(C(N)=S)C(=O)C1N=Nc1cccc(C)c1 (stereo not drawn),active: 1.26 µM,–
COc1ccc(/C=C2\C(=O)NC(=S)N2C(=O)c2ccc(F)cc2)cc1,–,inactive: -0.0894%

# Reference: PubChem BioAssay AID492947 (National Center for Advancing Translational Sciences (NCATS), 2010)
